This note sets out measurements from the antibiotic and cytotoxicity screens of Wong et al. (2023).

Test [1] deals with HSkMC (human skeletal muscle cells). In words: cytotoxicity call (relative viability < 0.9). To be noted: 10 µM.
Test [2] deals with HepG2. The test can be described thus: cytotoxicity call (relative viability < 0.9). The note with it: 10 µM.
The subject of test [3] is S. aureus RN4220. The test can be described thus: growth inhibition call (relative growth <= 0.2). To be noted: 50 µM.

The list shows a part of the results.

Turning to `C[C@@H]1CCCCO[C@H](CN(C)CC2CCCCC2)[C@@H](C)CN([C@H](C)CO)C(=O)c2cc(NC(=O)Nc3cccc4ccccc34)ccc2O1`, the cytotoxicity call in test [1] and in test [2] was “active” each time. Moreover, the growth inhibition call in test [3] was “inactive”.
For `Cc1ccc(S(=O)(=O)N(C)C[C@@H]2OCCCC[C@H](C)Oc3ccc(NC(=O)Nc4ccc(C(F)(F)F)cc4)cc3C(=O)N([C@@H](C)CO)C[C@H]2C)cc1`, the cytotoxicity call in test [1] and in test [2] was “inactive” in each case. Also, the growth inhibition call in test [3] was “inactive”.
For the molecule `NC[C@H](c1ccccc1Cl)N1CCOCC1`, the cytotoxicity call in test [1] and in test [2] was “inactive” in each case. Moreover, the growth inhibition call in test [3] was “inactive”.
With `C[C@H](CO)N1C[C@H](C)[C@H](CN(C)S(=O)(=O)c2ccc(Cl)cc2)Oc2c(NC(=O)C3CC3)cccc2C1=O`, the cytotoxicity call in test [1] and in test [2] was “inactive” each time. Besides, in test [3], the growth inhibition call is “inactive”.
